# Source: the supplement of paper PMC5499739
# Over roughly 16,000 sequences, “Z-score” has its median near -0.37; the highest 2% begin near 3.1. The list shows a part of the results.
# System: RBM10 RRM1-ZnF-RRM2 (GST-tagged construct)
# Assay: RNAcompete 7-mer binding Z-score; higher = stronger binding preference
# Procedure: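 RNAcompete: 20 pmol GST-tagged RBM10 RNA-binding constructs were incubated with a designed RNA pool of about 241,000 sequences up to 41 nt (1.5 nmol) on glutathione beads for 30 min at 4 °C and washed. Bound RNAs were identified by microarray hybridisation. Each RNA 7-mer is scored by a one-sided Z-score of its enrichment, computed over probes that contain the 7-mer within longer pool sequences.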
row,Sequence,RNAcompete 7-mer binding Z-score
1,AGGACCC,-0.508
2,GUCCUCA,-0.781
3,CGAUGAA,-0.00148
4,CAAAUCG,-0.409
5,UACACGU,-0.391
6,AUGAUCC,-0.624
7,UUCUAAG,-0.657
8,AGUCACC,-0.675
9,UUCUCAG,-0.606
10,UAACAUA,-0.439
11,UGCGCUG,-0.103
12,CCAGGGA,1.51
13,UGUCAGG,0.45
14,UGCUCGU,-0.606
15,AAGGAUC,1.54
16,UUCCCAA,-0.683
17,UGAAAUU,-0.686
18,AUGACCC,-0.57
19,UGGAGUC,0.807
20,GCUACCC,-0.752
21,GCGGUUA,1.19
22,CAGGCCG,0.0786
23,GGAAUGG,4.19

row,Sequence,RNAcompete 7-mer binding Z-score
1,UGGUGAA,1.22
2,UGUACGU,-0.253
3,AUCCGCC,-0.97
4,GAAGCGC,0.159
5,GAAGGUA,4.04
6,GUAAGUU,0.246
7,GGAAAUC,0.931
8,UAAGAAC,-0.231
9,ACGAAAA,-0.111
10,UUUGUUA,-0.748
11,GUUUAUG,0.0386
12,AGGGGUC,1.76
13,GUCAUAU,-0.209
14,UGGACCC,-0.147
15,ACUCUAG,-0.683
16,CUCCUAA,-0.861
17,AAUUGAA,-0.238
18,UGUCCUA,-0.559
19,UGCCUUU,-0.843
20,GCACUUA,-0.734
21,UGGGAAC,2.25
22,UCUGUUA,-0.795
23,GAGCUAG,0.399

row,Sequence,RNAcompete 7-mer binding Z-score
1,UAAGACU,-0.424
2,GUGAACA,0.767
3,ACGGUAA,0.829
4,CAACCCG,-0.584
5,AGAACUU,-0.708
6,ACCUUGA,-0.744
7,ACGUGGU,1.08
8,GGGAGAA,2.5
9,AAACGCA,-0.213
10,GUAUCUU,-0.668
11,GGCAACC,0.0896
12,CCAUCGC,-0.803
13,GCUAUGU,-0.358
14,UGUCCAA,-0.704
15,AACCAAG,0.0459
16,AUAAAGA,0.0131
17,AUUUCCU,-0.777
18,UGCCGGU,-0.0998
19,ACGCGUG,0.0568
20,CCUAACA,-0.766
21,GUGUCUC,-0.544
22,AAUGGCC,0.447
23,UUCCGCG,-0.621

row,Sequence,RNAcompete 7-mer binding Z-score
1,AUCCACG,-0.504
2,AUAACUC,-0.704
3,GGGACGU,1.73
4,CUUUGAA,-0.701
5,GACUACG,-0.14
6,AGAUAUU,-0.351
7,CCACGUU,-0.548
8,GCGGUCU,-0.0161
9,AAAUUUA,-0.402
10,UCCGGCA,-0.661
11,UAAUGCU,-0.672
12,UGAACUC,-0.588
13,GCCACAU,-0.664
14,CGCAGGU,0.53
15,UGCAAGU,0.0495
16,UCCGACG,-0.468
17,GCUUGUU,-0.792
18,AAUAAUG,0.0386
19,UACUUGA,-0.697
20,AUAAGUU,-0.249
21,UAUUUCA,-0.613
22,GAUUGGU,1.62
23,AAACAUG,-0.0634

row,Sequence,RNAcompete 7-mer binding Z-score
1,UGAACGU,-0.165
2,CGUGGGC,2.21
3,UUUGGGG,2.13
4,AUAUUCA,-0.384
5,AGCCAUU,-0.879
6,CAUGUUU,-0.632
7,GAGCUCA,-0.814
8,AUCUUCC,-0.679
9,AUCAGAG,0.508
10,AGAUAUC,-0.653
11,GCGACUU,-0.533
12,GGACCAG,0.884
13,CGUCUCA,-0.708
14,GUAUAUC,-0.235
15,UCUUUCA,-0.694
16,UUUUGCG,-0.737
17,AUUAUAU,-0.362
18,UCGUUGC,-0.588
19,UUUCGAG,-0.311
20,UUGCGGC,-0.0998
21,AAUUAGU,-0.238
22,CAUGCGA,-0.00148
23,GGAUGGA,3.36

row,Sequence,RNAcompete 7-mer binding Z-score
1,UUGGCAG,0.629
2,CCUCCCG,-0.737
3,GGAUUGU,0.822
4,CCGUCCC,-0.643
5,UAAUAAU,-0.449
6,CCAAUGG,0.68
7,ACACCGU,-0.49
8,UCGGAUA,0.184
9,GCUACCA,-0.515
10,UGGGACC,1.52
11,GUGUCGU,0.181
12,CUUGUUU,-0.836
13,AAUUAGA,-0.216
14,AAUGUCC,-0.544
15,CACGAAU,-0.449
16,AAUUCUG,-0.632
17,GGUGUAA,1.64
18,GCCUUUC,-0.879
19,UAACGCU,-0.646
20,UUGGGAU,1.9
21,UUUCGUC,-0.726
22,UACACAU,-0.5
23,CACCAGU,-0.519

row,Sequence,RNAcompete 7-mer binding Z-score
1,UAUAUCC,-0.57
2,GCGAUUG,0.148
3,GUACUCG,-0.282
4,UUAAGCG,-0.424
5,AUCUCGC,-0.894
6,CGAACAC,-0.38
7,GACACAC,-0.205
8,GAAGUAA,0.589
9,AGGCGUU,0.286
10,UGGAUGA,1.82
11,GAGAUAG,1.31
12,GCAUAAU,-0.439
13,AAGCGUG,0.676
14,ACUGUUA,-0.595
15,GGCCGCU,-0.424
16,CCAGUAG,-0.114
17,CCCUCGC,-0.646
18,UCAAGUU,-0.468
19,GACCAGU,-0.409
20,UUGUCUU,-0.803
21,AUGUUCC,-0.701
22,UUGUCGG,-0.0743
23,CUGCCCG,-0.541

row,Sequence,RNAcompete 7-mer binding Z-score
1,UAAUAUA,-0.347
2,UGUGGGG,3.75
3,CAAGAGU,0.348
4,UUGUACU,-0.81
5,GCUGACA,-0.289
6,GUACCAU,-0.18
7,UGGGGGG,3.39
8,UUGGUAC,0.53
9,UUUCGCU,-0.806
10,GGGUGCU,1.87
11,AAACCAU,-0.431
12,AUCAUUC,-0.734
13,ACAGAGA,0.192
14,AGAGUGA,1.02
15,CUAAUUA,-0.726
16,UUAUGUA,-0.42
17,UGAUGAC,-0.311
18,UGAGUUG,0.534
19,CGCAGCG,0.341
20,AAGCCGA,-0.504
21,GUCCGGG,0.698
22,UGGCCUU,-0.577
